Test results taken from ChEMBL document CHEMBL4888484, “Replenishing the malaria drug discovery pipeline: Screening and hit evaluation of the MMV Hit Generation Library 1 (HGL1) against asexual blood stage Plasmodium falciparum ,using a nano luciferase reporter read-out” (2022).
In all, about 150,000 compounds went through this assay and about 540 (0.36%) showed an effect of 50% or more. The list shows a part of the results.

Tested on: Plasmodium falciparum
Assay: Primary screen in NF54 nanoGlo assay, in single point, at 2uM, 72h; a lower Z score goes with more inhibition
Format: functional, Erythrocyte
Conditions: timepoint 72 hour

Compound	% Inhibition	Z score	% Inhibition (2 µM)
CC(C)(CNC(=O)c1cccs1)CNC(=O)c1cccs1	-11%	2	–
O=C1CCCN1c1ccc(NCc2cccc(O)c2)cc1F	-2%	0.32	–
Cc1nc(O)cc(CN2CCOCC2)n1	-18%	3.45	–
Cc1nnc(Cn2ccc(-c3cccc(-c4cnn5cccnc45)c3)n2)o1	-6%	1.21	–
C[C@H](Nc1ccc2c(c1)C(=O)NC2)c1ccc(S(C)(=O)=O)cc1	1%	-0.09	–
CC(C)c1cc(N2CCC[C@H](CS(C)(=O)=O)C2)nc(N)n1	2%	-0.23	–
COC(=O)c1cccc(S(=O)(=O)N2CCC[C@H](c3ccnc(N)n3)C2)c1C	-9%	1.04	–
O=c1c(NCc2ccc(Cl)cc2)nc2ccncc2n1Cc1ccccc1	31%	-3.01	–
Cn1cc(C(=O)N2CCC(Cc3ccc(F)c(F)c3)CC2)c(=O)[nH]c1=O	-2%	0.33	–
CC(C)CN(CCC(=O)NC1CC1)C(=O)c1cc(-c2ccccc2Cl)on1	3%	-0.29	–
CC(C)c1ccc(NC(=O)C2[C@@H]3C=C[C@]4(O3)C(C(=O)NC3CCCCC3C)N(Cc3cccnc3)C(=O)[C@H]24)cc1 (stereo not given in full)	19%	-3.04	–
CCn1cc([C@H](CC(=O)NCCCN2CCOCC2)c2cc(OC)cc(OC)c2)c2ccccc21	-23%	2.31	–
O=C(NCc1cnc2n1CCOC2)c1cnn(CCC(F)(F)F)c1	-5%	0.62	–
CC(C)COC[C@@H](O)CN1CCN(Cc2nc(C(=O)Nc3ccc4c(c3)CCC4)co2)CC1	-16%	2.93	–
CCC(C)C(NS(=O)(=O)CC1CCCCC1)C(N)=O (stereo not given)	-4%	0.69	–
CC(C)COc1ccc(NC(=O)N2C[C@H]3C[C@H](O)[C@H](O)C[C@H]3C2)cc1	-16%	1.6	–
COCc1noc(C[C@H]2CCOC3(CCN(C(=O)c4n[nH]c5ccccc45)CC3)C2)n1	5%	-0.74	–
CCc1n[nH]c(C(=O)N2CCC3(CC2)C[C@H](c2ccccc2)CN3C)c1C	3%	-0.6	–
COc1ccccc1C[C@H]1CCCN(C(=O)Cc2cc(C)on2)C1	1%	-0.24	–
CCN1CCN(CC(=O)N(CCc2ccccc2)C2CCCCC2)CC1	-5%	1.06	–
CCc1ccc(C(=O)N(Cc2ccco2)C2CC2)o1	-9%	1.32	–

Compound	% Inhibition	Z score	% Inhibition (2 µM)
CC(C)c1csc(-c2nc([C@H]3CCOC3)no2)n1	-6%	1.22	–
CCOc1ncccc1CNC(=O)c1ccc2c(c1)OCO2	-6%	0.58	–
CC1CN(C(=O)c2n[nH]c3ccccc23)CC(C)O1 (stereo not given)	33%	-0.86	–
CNC(=O)c1nsc(C(=O)N2CCN(c3ccc(Cl)cc3)CC2)c1N	-12%	1.42	–
CCOC(C)C(=O)OC1CCCN(C(=O)OC(C)(C)C)C1 (stereo not given)	-13%	1.95	–
COc1ccc2oc(CNC(=O)N(C)CC3CCOCC3)nc2c1	-2%	0.33	–
Cc1ccc2[nH]c([C@H](C)NC(=O)c3cnc(-c4ccccn4)nc3O)nc2c1	-13%	1.32	–
Cc1nc2c(c(N3CCC(NC(=O)c4ccc5[nH]cnc5c4)CC3)n1)CCCC2	-5%	0.63	–
CC(C)[C@H](NC(=O)OC(C)(C)C)C(=O)N1CCCN(C)CC1	-9%	0.72	–
C[C@@H]1Oc2cc(S(=O)(=O)N3CCN(C(=O)c4ccnn4C)CC3)c(Cl)cc2NC1=O	1%	-0.14	–
CCN(C(=O)c1nn(CC2CC2)c2c1COCC2)C(C)C	5%	-0.61	–
COc1ccccc1NC(=O)C(=O)N1CCO[C@H](c2ccccc2)C1	5%	-0.52	–
COc1cc2c(cc1OC)C1(CCCC1)CN(C(C)=O)C2	-8%	1.1	–
O=C(C1CCS(=O)(=O)C1)N1CCCC1CC1CC2CCC1C2 (stereo not given)	-5%	0.59	–
O=C(c1ccccc1-c1ccccc1)N1C[C@@H](CN2CCCCCC2)[C@@H](CO)C1	-16%	3.01	–
O[C@H]1CN[C@H](c2nc(-c3c[nH]c4ccccc34)nn2CC(F)(F)F)C1	-9%	1.61	–
OCc1cn(CCCN[C@@H](Cc2ccc(Br)cc2)C2CCC2)nn1	-10%	1.85	–
CCNC(=O)N1CCC[C@H](Cn2cnc3ccccc32)C1	-8%	1.54	–
CCCOCC(=O)N1C[C@H](C(F)(F)F)[C@@H](S(=O)(=O)N(C)C)C1	-2%	0.29	–
O=C1NC2(CCOCC2)C(=O)N1Cc1cccc(F)c1	-5%	0.55	–
CC[C@@](C)(CC(=O)O)NC(=O)Cc1cccc(Cl)c1	2%	-0.24	–

Compound	% Inhibition	Z score	% Inhibition (2 µM)
CC[C@@H](C(=O)O)n1cc(Br)c(C(F)(F)F)n1	-19%	2.23	–
CC(C)c1ccccc1NC(=O)OCC(F)(F)F	3%	-0.26	–
COc1cccc(-c2ccc(N3CCCN(C(=O)CN(C(=O)c4ccccc4C)C(C)C)CC3)nn2)c1	14%	-1.43	–
Cc1ccccc1OC[C@H](O)C(=O)N1CCS(=O)(=O)CC1	5%	-0.76	–
CCN(CC)c1ncc(CN2CC[C@H](NS(C)(=O)=O)C2)s1	-14%	1.85	–
CCC1NC(=O)N(CC(O)Cc2cccc(Cl)c2)C1=O (stereo not given)	7%	-1.16	–
Cc1ccc(Nc2cc(C)nc3nc(-c4cccnc4)nn23)c(C)c1	-12%	2.05	–
O=C(Nc1ncsc1C1CC1)N1C[C@@H]2CS(=O)(=O)C[C@@H]2C1	-7%	1.08	–
c1nc(NCc2ccc3c(c2)OCCO3)c2[nH]cnc2n1	-3%	0.5	–
Cc1cc2c(cc1S(=O)(=O)N1CCC(C(=O)N(Cc3ccco3)C[C@H]3CCCO3)CC1)OCC(=O)N2	7%	-0.82	–
O=C(Nc1cccc(C(F)(F)F)c1)c1cn2c3c(cc(Br)cc3c1=O)CC2	-6%	0.77	–
CCCOc1ccc(CN2C(=O)c3cc(C(C)C)nn3C[C@@]2(C)C(=O)NC2CCCCCCC2)cc1	1%	-0.17	–
COC[C@@]1(CNc2cccc(Br)c2C#N)CCCN1	-5%	0.7	–
O=C(Cc1c[nH]c2ccccc12)Nc1ccccc1C(=O)NC1CC1	-4%	0.55	–
CC(C(=O)Nc1cccc2ccccc12)N1CCC(c2ccccc2)C1 (stereo not given)	-9%	1.63	–
CC(C)N1CCO[C@H](c2noc(C3CCN(c4nc5ccccc5o4)CC3)n2)C1	-8%	0.92	–
COC[C@@H]1CCC[C@@H]1NC(=O)c1cc(Cl)c[nH]c1=O	-10%	1.85	–
O=S(=O)(c1ccc2c(c1)CCN2S(=O)(=O)c1ccccc1)N1CCOCC1	-8%	1.51	–
CC[C@@H]1Oc2ccc(NC(=O)Cc3ccc(F)cc3)cc2CN(Cc2cccc(OC)c2)C1=O	7%	-1.21	–
COCCn1cc2c(n1)[C@@H](NCc1ccccc1)CCC2	-1%	0.06	–
Cc1nc[nH]c1CN1CC[C@@H]2N(Cc3cccs3)CCC[C@@]2(CO)C1	-14%	1.66	–

Compound	% Inhibition	Z score	% Inhibition (2 µM)
Cn1c2c(c(=O)n(C)c1=O)[C@H](c1ccccc1)NC(O)=N2	-12%	1.91	–
COc1cccc(OCC2CN(CC(O)COc3ccccc3)CCO2)c1 (stereo not given)	6%	-0.87	–
CC(C)(C)CC(=O)Nc1ccccc1C(N)=O	35%	-4.55	–
N#Cc1cccc(NC(=O)c2cn(C[C@H](O)c3ccccc3)nn2)c1	-16%	3.11	–
Cc1nc(-c2csc(S(=O)(=O)N3CCCCC3)c2)sc1C(=O)N1CCCCC1	-20%	2.83	–
Cc1ccc(C(=O)NCC2CCN(Cc3ccccc3F)CC2)cc1-n1nnc2cccnc21	-9%	1.69	–
CCS(=O)(=O)N1CCC2(CC1)C[C@@H](Cc1ccc(C)cc1)CCO2	-15%	1.88	–
Cc1ccc([C@H](CNC(=O)C(C)(C)C)OCCO)cc1	6%	-0.85	–
CC12CCCN1C(=O)N(C1CC(=O)N(c3ccccc3)C1)C2=O (stereo not given)	-1%	0.14	–
FC(F)(F)Cn1nc(COc2ccccc2)nc1C1CCOCC1	-4%	0.64	–
O=C(Nc1ccnn1C1CCN(CCCc2ccccc2)CC1)c1ccccc1	-6%	1.1	–
O=C1CCCN1C[C@H]1CCCN(C(=O)Nc2nncs2)C1	-6%	0.84	–
C[C@H]1CCc2c(cnc3scc[n+]23)C1	-6%	0.87	–
Cc1oc2ncnc(NC(=O)c3ccc(Oc4ccc(C(F)(F)F)cn4)cc3)c2c1C	6%	-0.89	–
Cc1cc(C)n2cc(COC(=O)c3c(C)noc3C)nc2n1	-5%	0.53	–
O=C(Nc1ccccc1)N1CCC2(CC1)OCCc1ccsc12	-13%	1.46	–
CCC1(CC)C(NC(=O)c2cncc(O)c2)CC1OC (stereo not given)	10%	-1.68	–
Cn1nnnc1NC/C=C/c1ccccc1	–	–	-11%
Cc1cnc(CN[C@@H](C)c2ncc(C)s2)o1	2%	-0.27	–
Cc1ccc(NC(=O)CS(=O)(=O)Cc2noc(CC(C)C)n2)cc1F	-13%	1.63	–
